# The list shows a part of the results.
# B1: HPA (Helix pomatia), Q575S3 (protein)
# chain: MWAHLTGLLLICALSLSAAQRAQTGEIDCGSDSSWPKDPSDNPNRDNTREIVKHVTFSPQFCREPKVILSVTTLDAEHTKNLRYEARLKSVSPSGLSASCYSWHDGTIYRMKLSWLAVED
# Key:
# Experiment in all cases: glycan array binding signal (z-score within array); higher = stronger binding
# Conditions in all cases: glycan notation: IUPAC condensed, linker removed
# Man(a1-3)[Man(a1-6)]Man = molecular target: Man(a1-3)[Man(a1-6)]Man
# How it was run: (§1)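 Arrays were curated from the Consortium for Functional Glycomics database, 3228 in total, and kept only where the protein sequence was available. Binding is expressed as a within-array Z-score. This score was averaged across arrays of the same protein sequence at different concentrations or buffers and across linkers, and negative values can be read as non-binding.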
# [1] = molecular target: Man(a1-3)[Man(a1-6)]Man(a1-6)[Man(a1-2)Man(a1-3)]Man(b1-4)GlcNAc(b1-4)GlcNAc
# How it was run: as §1
# [2] = molecular target: Man(a1-3)[Man(a1-6)]Man(a1-6)[Man(a1-3)]Man
# How it was run: as §1
# [3] = molecular target: Man(a1-3)[Man(a1-6)]Man(a1-6)[Man(a1-3)]Man(b1-4)GlcNAc(b1-4)GlcNAc
# How it was run: as §1
# [4] = molecular target: Man(a1-3)[Man(a1-6)]Man(b1-4)GlcNAc(b1-4)GlcNAc
# How it was run: as §1
# [5] = molecular target: Man(a1-3)[Man(a1-6)]Man(b1-4)GlcNAc(b1-4)[Fuc(a1-6)]GlcNAc
# How it was run: as §1
# Man(a1-6)Man = molecular target: Man(a1-6)Man
# How it was run: as §1
# Man(b1-4)GlcNAc = molecular target: Man(b1-4)GlcNAc
# How it was run: as §1
# MurNAc(b1-4)GlcNAc = molecular target: MurNAc(b1-4)GlcNAc
# How it was run: as §1
# Neu5Ac(a2-3)Gal = molecular target: Neu5Ac(a2-3)Gal
# How it was run: as §1
# [6] = molecular target: Neu5Ac(a2-3)Gal(b1-3)GalNAc
# How it was run: as §1
# [7] = molecular target: Neu5Ac(a2-3)Gal(b1-3)GalNAc(b1-3)Gal(a1-4)Gal(b1-4)Glc
# How it was run: as §1
# [8] = molecular target: Neu5Ac(a2-3)Gal(b1-3)GalNAc(b1-3)Gal(b1-4)GlcNAc
# How it was run: as §1
# [9] = molecular target: Neu5Ac(a2-3)Gal(b1-3)GalNAc(b1-4)[Neu5Ac(a2-3)]Gal(b1-4)Glc
# How it was run: as §1
# [10] = molecular target: Neu5Ac(a2-3)Gal(b1-3)GalNAc(b1-4)[Neu5Ac(a2-8)Neu5Ac(a2-3)]Gal(b1-4)Glc
# How it was run: as §1
# [11] = molecular target: Neu5Ac(a2-3)Gal(b1-3)GalNAc6S
# How it was run: as §1
# [12] = molecular target: Neu5Ac(a2-3)Gal(b1-3)GlcNAc
# How it was run: as §1
# [13] = molecular target: Neu5Ac(a2-3)Gal(b1-3)GlcNAc(b1-2)Man
# How it was run: as §1
# [14] = molecular target: Neu5Ac(a2-3)Gal(b1-3)GlcNAc(b1-2)Man(a1-3)[GlcNAc(b1-4)][Neu5Ac(a2-3)Gal(b1-3)GlcNAc(b1-2)Man(a1-6)]Man(b1-4)GlcNAc(b1-4)GlcNAc
# How it was run: as §1
# [15] = molecular target: Neu5Ac(a2-3)Gal(b1-3)GlcNAc(b1-2)Man(a1-3)[Neu5Ac(a2-3)Gal(b1-3)GlcNAc(b1-2)Man(a1-6)]Man(b1-4)GlcNAc(b1-4)GlcNAc
# How it was run: as §1
# [16] = molecular target: Neu5Ac(a2-3)Gal(b1-3)GlcNAc(b1-3)Gal(b1-3)GlcNAc
# How it was run: as §1
# [17] = molecular target: Neu5Ac(a2-3)Gal(b1-3)GlcNAc(b1-3)Gal(b1-4)GlcNAc
# How it was run: as §1
# [18] = molecular target: Neu5Ac(a2-3)Gal(b1-3)GlcNAc(b1-3)GalNAc
# How it was run: as §1
# [19] = molecular target: Neu5Ac(a2-3)Gal(b1-3)GlcNAc(b1-4)Gal(b1-4)Glc
# How it was run: as §1
# [20] = molecular target: Neu5Ac(a2-3)Gal(b1-3)GlcNAc(b1-6)GalNAc
# How it was run: as §1
# [21] = molecular target: Neu5Ac(a2-3)Gal(b1-3)GlcNAc6S
# How it was run: as §1
# [22] = molecular target: Neu5Ac(a2-3)Gal(b1-3)[Fuc(a1-4)]GlcNAc
# How it was run: as §1
# [23] = molecular target: Neu5Ac(a2-3)Gal(b1-3)[Fuc(a1-4)]GlcNAc(b1-3)Gal(b1-3)[Fuc(a1-4)]GlcNAc
# How it was run: as §1
# [24] = molecular target: Neu5Ac(a2-3)Gal(b1-3)[Fuc(a1-4)]GlcNAc(b1-3)Gal(b1-4)[Fuc(a1-3)]GlcNAc
# How it was run: as §1
# [25] = molecular target: Neu5Ac(a2-3)Gal(b1-3)[GlcNAc(b1-6)]GalNAc
# How it was run: as §1
# [26] = molecular target: Neu5Ac(a2-3)Gal(b1-3)[Neu5Ac(a2-3)Gal(b1-4)]GlcNAc
# How it was run: as §1
# [27] = molecular target: Neu5Ac(a2-3)Gal(b1-3)[Neu5Ac(a2-6)]GalNAc
# How it was run: as §1
# [28] = molecular target: Neu5Ac(a2-3)Gal(b1-3)[Neu5Ac(a2-6)]GlcNAc(b1-3)[Fuc(a1-3)[Gal(b1-4)]GlcNAc(b1-6)]Gal(b1-4)Glc
# How it was run: as §1
# [29] = molecular target: Neu5Ac(a2-3)Gal(b1-3)]Neu5Ac(a2-3)Gal(b1-4)]GlcNAc
# How it was run: as §1
# Neu5Ac(a2-3)Gal(b1-4)Glc = molecular target: Neu5Ac(a2-3)Gal(b1-4)Glc
# How it was run: as §1
# [30] = molecular target: Neu5Ac(a2-3)Gal(b1-4)GlcNAc
# How it was run: as §1
# [31] = molecular target: Neu5Ac(a2-3)Gal(b1-4)GlcNAc(b1-2)Man
# How it was run: as §1
binder,measurement,setting,value
B1,glycan array binding signal (z-score),Man(a1-3)[Man(a1-6)]Man,-0.266
same,glycan array binding signal (z-score),[1],-0.138
same,glycan array binding signal (z-score),[2],-0.263
same,glycan array binding signal (z-score),[3],-0.257
same,glycan array binding signal (z-score),[4],-0.255
same,glycan array binding signal (z-score),[5],-0.253
same,glycan array binding signal (z-score),Man(a1-6)Man,-0.257
same,glycan array binding signal (z-score),Man(b1-4)GlcNAc,-0.26
same,glycan array binding signal (z-score),MurNAc(b1-4)GlcNAc,-0.255
same,glycan array binding signal (z-score),Neu5Ac(a2-3)Gal,-0.263
same,glycan array binding signal (z-score),[6],-0.119
same,glycan array binding signal (z-score),[7],-0.243
same,glycan array binding signal (z-score),[8],-0.321
same,glycan array binding signal (z-score),[9],-0.264
same,glycan array binding signal (z-score),[10],-0.245
same,glycan array binding signal (z-score),[11],-0.26
same,glycan array binding signal (z-score),[12],-0.261
same,glycan array binding signal (z-score),[13],-0.246
same,glycan array binding signal (z-score),[14],-0.249
same,glycan array binding signal (z-score),[15],-0.228
same,glycan array binding signal (z-score),[16],-0.256
same,glycan array binding signal (z-score),[17],-0.242
same,glycan array binding signal (z-score),[18],-0.241
same,glycan array binding signal (z-score),[19],-0.252
same,glycan array binding signal (z-score),[20],-0.258
same,glycan array binding signal (z-score),[21],-0.249
same,glycan array binding signal (z-score),[22],-0.267
same,glycan array binding signal (z-score),[23],-0.237
same,glycan array binding signal (z-score),[24],-0.209
same,glycan array binding signal (z-score),[25],-0.255
same,glycan array binding signal (z-score),[26],-0.265
same,glycan array binding signal (z-score),[27],-0.264
same,glycan array binding signal (z-score),[28],-0.258
same,glycan array binding signal (z-score),[29],-0.257
same,glycan array binding signal (z-score),Neu5Ac(a2-3)Gal(b1-4)Glc,-0.256
same,glycan array binding signal (z-score),[30],-0.27
same,glycan array binding signal (z-score),[31],-0.235
